Counter-ions that a name gives are not always drawn. Among all 1,300 compounds or so, about 40 (3%) showed activity. Some of the results follow.
Test system: Plasmodium falciparum NF54/iGP1_RE9H ulg8 stage V gametocytes
Test: gametocyte viability (luciferase signal relative to DMSO control) (% of DMSO control); higher = less gametocytocidal activity, active = 50 or less
Conditions: exposure time: 72 h
Summary of the method: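 Gametocyte viability is reported relative to the average of DMSO vehicle wells on the same plate. The assay used day-12 stage V NF54/iGP1_RE9Hulg8 gametocytes at ~2.5% gametocytemia and 3% hematocrit, in 0.5% Albumax II medium, added to 96-well plates of compounds spotted in nanolitre volumes for final 10 µM or 1 µM, one well each. After 72 h at 37 °C, 90 µl was mixed with 10 µl D-luciferin (30 mg/ml), and luminescence was recorded with an IVIS Lumina II.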

Structure (SMILES) | gametocyte viability (concentration: 1 µM) | gametocyte viability (concentration: 10 µM)
CCC(C)n1ncn(-c2ccc(N3CCN(c4ccc(OCC5COC(Cn6cncn6)(c6ccc(Cl)cc6Cl)O5)cc4)CC3)cc2)c1=O (centres undefined) [Itraconazole] | inactive: 80.5 | inactive: 64
Cc1cccc(Nc2ccccc2C(=O)O)c1C [Mefenamic acid] | inactive: 94 | inactive: 94.6
C[n+]1ccccc1/C=N/O [Pralidoxime chloride] | inactive: 97.1 | inactive: 95.4
O=C(O)CCNC(=O)c1ccc(/N=N/c2ccc(O)c(C(=O)O)c2)cc1 [Balsalazide Sodium] | inactive: 83.6 | inactive: 87.9
O=C1OC(CN2CCOCC2)CN1/N=C/c1ccc([N+](=O)[O-])o1 (centres undefined) [Furaltadone hydrochloride] | inactive: 89.7 | inactive: 93.4
CNCCCN1c2ccccc2CCc2ccccc21 [Desipramine hydrochloride] | inactive: 80.3 | inactive: 80.5
Nc1nc(O)c2ncn(CCC(CO)CO)c2n1 [Penciclovir] | inactive: 83.5 | inactive: 81.8
Fc1ccc([C@@H]2CCNC[C@H]2COc2ccc3c(c2)OCO3)cc1 [Paroxetine Hydrochloride] | inactive: 89.6 | inactive: 51.5
O=c1[nH]cnc2c1ncn2[C@H]1CC[C@@H](CO)O1 [Didanosine] | inactive: 81.7 | inactive: 84
CN(C/C=C/C#CC(C)(C)C)Cc1cccc2ccccc12 [Terbinafine] | inactive: 81.4 | inactive: 85.6
NCCC[C@H](N)CC(=O)N[C@H]1CNC(=O)[C@H]([C@H]2C[C@H](O)NC(N)=N2)NC(=O)/C(=C/NC(N)=O)NC(=O)[C@H](CO)NC(=O)[C@H](CO)NC1=O [Viomycin sulfate] | inactive: 95 | inactive: 96.5
CN(C)CCCN1c2ccccc2CCc2ccccc21 [Imipramine hydrochloride] | inactive: 96.7 | inactive: 92.4
NC(CO)C(=O)NNCc1ccc(O)c(O)c1O (centres undefined) [Benserazide hydrochloride] | inactive: 89.1 | inactive: 88.2
CN1CCC(OC(c2ccccc2)c2ccccc2)CC1 [Diphenylpyraline hydrochloride] | inactive: 88.9 | inactive: 100
O=C(Oc1cccc2cccnc12)c1ccccc1 [Benzoxiquine] | inactive: 83.5 | inactive: 83.4
Clc1ccc(Nc2nnc(Cc3ccncc3)c3ccccc23)cc1 [Vatalanib] | inactive: 89.2 | inactive: 69.1
CC(C)CN(C[C@@H](O)[C@H](Cc1ccccc1)NC(=O)O[C@H]1CO[C@H]2OCC[C@H]21)S(=O)(=O)c1ccc(N)cc1 [Darunavir] | inactive: 82.6 | inactive: 81.5

— the supplement of paper PMC12297408
